PubChem BioAssay AID1347073 (National Center for Advancing Translational Sciences (NCATS), 2019)
The campaign covered roughly 45,000 compounds. About 200 (0.44%) were called active. Another 7% or so got no clear call; they are omitted. Calls follow the shape of the dose curve; as a rule, active = well fitted activation curve with a large enough effect; inconclusive = small, poorly fitted or top-dose-only effect; inactive = no such curve, though single readings can be large or run the other way. The list shows a part of the results.

Experiment: qHTS of TDP-43 Inhibitors: NCGC Sytravon Library Screen; also: 0% is about no effect; nearly all actives have a fitted effect of over 55% in size
Details: yeast TDP-43 toxicity rescue, BacTiter-Glo growth, 24 h; series mostly up to 46.1 µM; growth rescue (activation): at the top concentration
Outline: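 TDP-43-expressing yeast, pregrown in raffinose, seeded at OD600 0.02 in galactose medium with compound for 24 hr at 30 deg C. Growth read by BacTiter-Glo luminescence, so rescue of toxicity appears as activation.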

Row | Structure (SMILES) | growth rescue (activation)
1 | COC(=O)Nc1c(C(=O)OC)cc(OC)c(OC)c1OC | inactive: -5.67%
2 | COc1cnc(-c2ccccn2)nc1NC(C)C | inactive: 3.28%
3 | CCOc1cc(C2C(C(C)=O)=C(O)C(=O)N2CCc2c[nH]c3ccccc23)ccc1O (stereo not drawn) | inactive: -1.51%
4 | Cc1cccc(NC(=S)NCCN2CCOCC2)c1 | inactive: 17.3%
5 | Cc1nc2c(OCc3ccccc3)cccn2c1N(C)C(=O)C1CCCCC1 | inactive: 5.13%
6 | Cc1ccc(-n2c(=S)[nH]c3[nH]ncc3c2=O)cc1 | inactive: -0.846%
7 | COc1ccc2cc(C(=O)NCc3ccccc3)[nH]c2c1 | inactive: 7.15%
8 | COc1ccccc1CNC(=O)CN1C(=O)NC2(CCCCCC2)C1=O | inactive: 3.96%
9 | CN(C(=O)COc1ccc(S(=O)(=O)N2CCOCC2)cc1[N+](=O)[O-])C1CCS(=O)(=O)C1 (stereo not drawn) | inactive: 30.5%
10 | CCOC(=O)NN1C(=O)c2ccccc2NC1c1ccccc1O (stereo not drawn) | inactive: 9.16%
11 | Cc1cc2ncn(CCC(=O)NC3CCCC3)c2cc1C | inactive: -4.91%
12 | CCOP(=O)(OCC)C(NC(=O)c1ccc(OC)c(OC)c1)c1ccccc1 (stereo not drawn) | inactive: 0.423%
13 | CC(=O)Nc1ccc(Nc2nc3ccc(Cl)cc3n3cnnc23)cc1 | inactive: 5.02%
14 | CC1(C)CC(CNCCC(c2ccc(F)cc2)c2ccco2)CCO1 (stereo not drawn) | inactive: 1.96%
15 | Fc1ccccc1-n1ncc2c1ncn1nc(COc3ccc(Cl)cc3)nc21 | inactive: 2.9%
16 | CN1CCN(C(=O)c2cc(S(=O)(=O)Nc3ccccc3F)c(Cl)cc2Cl)CC1 | inactive: -28.4%
17 | Cc1ccc(C(=O)c2cn[nH]c2-c2ccccc2O)cc1 | inactive: 9.31%
18 | CC(=O)c1ccc2c(c1)C1C=CCC1C(C(=O)O)N2 (stereo not drawn) | inactive: 6.7%
19 | COc1ccc(OC)c(C(=O)c2ccc(C(=O)Nc3ccc(NC(C)=O)cc3)cc2)c1 | inactive: 18.5%
20 | COc1ccc(C2c3[nH]c4ccccc4c3CCN2CCCn2cccn2)c(F)c1 (stereo not drawn) | inactive: 16.2%
21 | OCC(O)CSc1nc(-c2ccccc2)nc2c1CCC2 (stereo not drawn) | inactive: 5.41%
22 | CN(Cc1ccccc1)C(=O)C1CCCN1S(=O)(=O)c1ccc2c(c1)n(C)c(=O)c(=O)n2C (stereo not drawn) | inactive: 14.5%
23 | O=C(c1cc(Cl)ccc1[N+](=O)[O-])n1cnc2ccccc21 | inactive: 30.6%

Row | Structure (SMILES) | growth rescue (activation)
24 | COCCNC(=O)c1ccc(Cl)c(S(=O)(=O)Nc2cccc(C)c2C)c1 | inactive: 11.7%
25 | NS(=O)(=O)c1ccc(NC(=O)Cn2nc(C(=O)O)c3ccccc3c2=O)cc1 | inactive: -5.28%
26 | O=C(C1CCCN(S(=O)(=O)c2ccc(F)cc2)C1)N1CCOCC1 (stereo not drawn) | inactive: -0.899%
27 | CC1(C(=O)NS(=O)(=O)c2cccs2)CCN1C(=O)c1cccc(F)c1 (stereo not drawn) | inactive: 5.41%
28 | Cc1sc2nc(SCC(=O)Nc3cccc(C(=O)O)c3)[nH]c(=O)c2c1C | inactive: -9.27%
29 | COc1cc(C(=S)N2CCOCC2)cc(OC)c1O | inactive: 28.7%
30 | O=C(Nc1cccc(Cl)c1)C1=CC=CN2CCS(=O)(=O)N=C12 | inactive: -3.55%
31 | COCC(=O)N/N=C/c1c(C)[nH]n(-c2ccccc2)c1=O | inactive: -13.3%
32 | COc1ccc(NCc2nnc(SCC(=O)Nc3ccc(OC)cc3)n2C)cc1 | inactive: -3.57%
33 | Nc1nonc1-n1nnc(C(=O)N/N=C/c2cccc(Cl)c2Cl)c1CN1CCCC1 | inactive: 18.1%
34 | COc1ccc(CNC(=O)CN(C)S(=O)(=O)c2ccccc2)cc1 | inactive: 9.09%
35 | Cn1ccc(C(=O)OCC(=O)Nc2ccccc2)n1 | inactive: -16.9%
36 | CC1CC(C)CN(S(=O)(=O)c2ccc(C(=O)N(c3ccccn3)C3CCCCC3)cc2)C1 (stereo not drawn) | inactive: 25.6%
37 | CCCCC(=O)Nc1ccc2c3c(cccc13)CC2 | inactive: 14.9%
38 | CC(C)CC(=O)NS(=O)(=O)c1ccc(NS(C)(=O)=O)cc1 | inactive: 15.2%
39 | O=C(C1CCN(S(=O)(=O)N2CCOCC2)CC1)N1CCN(c2ccccc2)CC1 | inactive: 26.8%
40 | COc1cc(C(=O)Oc2ccccc2/C=N/NC(=O)c2ccc(C)cc2)cc(OC)c1OC | inactive: -6.53%
41 | O=C1c2ccccc2C(=O)N1Cc1ccccn1 | inactive: 0.485%
42 | COc1ccc(NC(=O)COC(=O)CC23CC4CC(CC(C4)C2)C3)c([N+](=O)[O-])c1 | inactive: -8.78%
43 | COc1ccc(C(CC(=O)c2ccccc2)CC(=O)c2ccccc2)cc1OC | inactive: 0.265%
44 | Nc1nc(SCc2ccc(Br)cc2)[nH]c(=O)c1-c1ccccc1 | inactive: -16.5%
45 | CC(C)[C@H](NC(=O)c1ccccc1)C(=O)OCC(=O)Nc1sccc1C(N)=O | inactive: 6.04%
46 | O=C(NC(Cc1c[nH]c2ccccc12)C(=O)O)c1ccc(F)cc1 (stereo not drawn) | inactive: 6.95%

Row | Structure (SMILES) | growth rescue (activation)
47 | CC(=O)Nc1ccc(NC(=O)CNC(=O)c2cccc(C)c2)cc1 | inactive: -7.49%
48 | CCN(C(=O)CN1C(=O)NC(c2ccccc2)(c2ccccc2)C1=O)c1ccccc1 | inactive: 22.2%
49 | CSCC[C@H](NC(=O)Cc1c(C)c2c(cc(C)c3c(C)coc32)oc1=O)C(=O)O | inactive: 8.15%
50 | Cc1ccc2nc(SCC(=O)Nc3ccc4[nH]c(=O)[nH]c4c3)[nH]c2c1 | inactive: 32.5%
51 | COc1ccc(NC(=O)N2CCC(C(=O)c3ccc4c(c3)OCCO4)CC2)cc1 | inactive: 7.79%
52 | Cn1c(N)c(C(=O)COC(=O)/C=C/c2ccc(Cl)cc2Cl)c(=O)n(C)c1=O | inactive: -23.1%
53 | CCCCCC1CC(=O)C=C(C)C1C(=O)OC (stereo not drawn) | inactive: -4.46%
54 | CN(C(=O)CC1C(=O)NCCN1Cc1ccc(F)c(F)c1)C1CCOCC1 (stereo not drawn) | inactive: 4.73%
55 | COC(=O)c1cn(C(=O)c2ccc(C)cc2C)c2ccccc12 | inactive: -0.133%
56 | CC(C)c1ccc(NC(=S)Nc2ccc(OC(F)(F)F)cc2)cc1 | inactive: 11.7%
57 | Cc1nc2c(OCc3ccc(C(F)(F)F)cc3)cccn2c1N(C)Cc1cccs1 | inactive: 24.5%
58 | O=C(NC(=S)N1CCOCC1)c1cc2ccccc2o1 | inactive: 9.08%
59 | O=C(Nc1ccccc1)c1ccccc1OCc1ccc(S(=O)(=O)N2CCOCC2)cc1 | inactive: 9.27%
60 | Cc1cccc(C)c1NC(=O)CN(c1ccccn1)S(=O)(=O)c1ccccc1 | inactive: 11.4%
61 | O=C(O)CC(NCc1ccco1)C(=O)Nc1cccc(O)c1 (stereo not drawn) | inactive: 36.8%
62 | COc1cccc(/C=N/NC(=O)c2c(C)nc3ccc(Cl)cn23)c1O | inactive: 16.7%
63 | O=c1[nH]c(=O)n(Cc2ccccc2)c2nc(-c3ccc(C(F)(F)F)cc3)n(CCO)c12 | inactive: 7.06%
64 | O=C(COC(=O)c1cccc(S(=O)(=O)N2CCCCC2)c1)NCc1ccccc1 | inactive: 1.24%
65 | CCOc1ccc(C(C)=O)cc1NC(=O)/C=C\C(=O)O | inactive: 18.4%
66 | O=C1C(Cc2cccc([N+](=O)[O-])c2)S/C(=N/N=C/c2ccco2)N1c1ccccc1 (stereo not drawn) | inactive: 13.8%
67 | CCC(=O)N1CCCC(C(=O)Nc2nc3ccccc3n2C)CC1 (stereo not drawn) | inactive: 4.76%
68 | CNc1cncc(-c2cccc(C(C)=O)c2)n1 | inactive: 17.5%
